{"source": "the RNAGym collection of RNA variant scans (doi:10.1093/nar/gkz1192)", "parents": {"B1": {"name": "CPEB3 Ribozyme (parent)", "chain": "UAACAGGGGGCCACAGCAGAAGCGUUCACGUCGCAGCCCCUGUCAGAUUCUGGUGAAUCUGCGAAUUCUGCUGUAUAUCUC"}}, "note": "Read counts are not given, so values of variants with three or more changes are uncertain.", "data": [{"variants_of": "B1", "test": "self-cleavage, relative activity (ratio to wild type); higher = more cleavage; in vitro, sequencing", "method_in_brief": "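Libraries of CPEB3 self-cleaving ribozyme mutants came from rounds of error-prone PCR and carried barcodes, which DNA sequencing matched to variants. In vitro transcription used T7 RNA polymerase at 37°C for 5 hours, with a further 15 min in DNase I before EDTA stopped the reaction; the ribozymes cleaved during both steps. The RNA was reverse transcribed with template switching and sequenced on Illumina. Relative activity is the cleaved/total read fraction of a variant divided by that of the unmutated ribozyme, averaged over three batches with at least 5 reads.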", "values": [{"variant": "UGACAGGGGGCCACAGCAGUAGCGUUCACGUCGCAGCCCCUGUCAGAUUCUGGUGAAUCUGCGAAUCCAGCUGUAUAUCUC", "self-cleavage": 0.11}, {"variant": "UGACUGGGGGCGACAGCAGAAGCGUUCACGUCGCAGCCACUGUCGGAUUCUGGUGAUUCUGCGAAUUCUGCUGUAUAUCUC", "self-cleavage": 0.08}, {"variant": "UGACAGGGGGCCACAGCCGAAGCGUUCACGUCACAGCCCCUGUCAGAUUCUGGUGAAUCUGCGAAUUCUGCCGAAUAUCUC", "self-cleavage": 0.39}, {"variant": "UGACAGGGGGCCACAGCAGUAGCGUCCACGUCGCAGCCCCUGUCAGAUUCUGGUGAAUCCGCGAAUUCUGCUCUAUAUCUC", "self-cleavage": 0.48}, {"variant": "UGACAGGGGGCCACAGCAGUAGCGUUCAUGUCGCAGACCCUGUCAGUUUCUGGUGAAUCUGCGAAUUCUGCUGUAUAUCUC", "self-cleavage": 0.25}, {"variant": "UGACAGGGGGCCACAGCAGAGGCGUUCACGUCGCGGCCCCUGUCAGAUUCUGGUGAAUCUGCGAAUUCUGCUGUAUAUCUC", "self-cleavage": 0.87}, {"variant": "UGACGGGGGGCCACGGCAGUGGCGUUCACGUCGCAGCCCCUGCCAGAUUCUGGUGAAUCUGCGAAUUCUGCUGUAUAUCUC", "self-cleavage": 0.61}, {"variant": "UGACUGGGGGCCACAGCAGUAGCGUUCCCGUCGCAGCCCCUGUCAGAUUCUGGUGAAUCUGCGAAUUCUGCUGUAUAUCUC", "self-cleavage": 0.58}, {"variant": "UGACAGGGGGCCACAGCAGGAGCGUUCACGUUGCAGCCCCAGUCAGAUUCUGGUGUAUCUGCGAAUUCUGCAGUAUAUCUC", "self-cleavage": 0.06}, {"variant": "UGACAGGGGGCCGCAGCAGAAGCGUUUACGUCGCAGCCCCUGUCAGAUUCUGGUGAACCUGCGAAUUCUGUUGUAUAUCUC", "self-cleavage": 0.1}, {"variant": "UGACAGGGGGCCUCAGCAGAAGCGUUCACGUCGCAGCCCCUGUCAGGUUCUGGUGAAUCUGCGAAUUCUGCUGUAUAUCUC", "self-cleavage": 0.21}, {"variant": "UGACAGGGGGCCGCAGCAGUAGCGUUCACGUCGCAGCCCCUGUCAGAUUCCGGCGAAUCUGCGAAUUCUGCUGUAUACCUC", "self-cleavage": 0.07}, {"variant": "UGACAGGGGGCCACAGCGGAAGCGUUCGCGUCGCAGCCCCUGUCAGAUUCUGGUGAAUCUGCGAAUUAUGCCGUAUAUCUC", "self-cleavage": 0.07}, {"variant": "UGACAGGGGGCCACAGCAGAGGCGUUCACGUCGCAGCCCCUGUCAGAUUCUGGUGUGUCUGCGAAUUCUGCUGUAUAUCUC", "self-cleavage": 0.15}, {"variant": "UGACAGGGGGCCACCGCAGAAGCGUUCACGCCGCAGCCCCUGUCAGAUUCUGGUGAAUCUGCGAAUUCUGCUGUAUAUCAC", "self-cleavage": 0.55}, {"variant": "UGACAGGGGGCCACAGCAGUGGCGUACACGUCGCAGCCCCUGUCAGAUUCUGGUGAAUCUGCGAAUUCUGCUGUAUAUCUC", "self-cleavage": 0.31}, {"variant": "UGACGGGGGGCCACAGCAGAAGCGUUCACGCCGCAGCCCCUGUCAGAUUCCGGUGAACCUGCGAAUUCUGCUGUAUAUCUC", "self-cleavage": 0.25}, {"variant": "UGACAGGGGGCCACGGCAGAAGCGUUCCCGUCGCAGCCCCUGUCAGAUUCUGGUGAGUCUGCGAAUUCUGCUGUAUACCCC", "self-cleavage": 0.04}, {"variant": "UGACUGGGGGCCACAGCAGAAGCGUACACGUCGCAGCCCCUGUCAGAUUCUGGUGAAUCUGCGAAUUCUGCUGUAUAACUC", "self-cleavage": 0.94}, {"variant": "UGACAGGGGGCCGCAGCAGAAGCGUUCGCGUCGCAGCCCCUGGCAGAUUCUGGCGAAUCUGCGAAUUCUGCUGUAUAUCUC", "self-cleavage": 0.49}, {"variant": "UGACAGGGGGCCACAGCGGAAGCGUUCACGUCACGGCCCCAGUCAGAUUCUGGUGAAUCUGCGAAUUCUGCUGUAUAUCUC", "self-cleavage": 0.05}, {"variant": "UGACAGGGGGCCACGGCAGAAGCGUUCACGUCGCAGCCCCUGUCAGAUUCUGGUGAAUCUGCGAAUUCUGCAGUAUAUCCC", "self-cleavage": 0.41}, {"variant": "UGACGUGGGGCCACAGCAGAAGCGUUCACGUCGCAGCCCCUGUCAGAUUCUGGUGUAUCUGCGAAUUCUGCUGUAUAUCUC", "self-cleavage": 0.04}, {"variant": "UGACAGGGGGCCACAGCAGGAGCGUUCACGUCGCAGCCCCUGUCAGAUUCUUGUGUAUCUGCGAAUUCUGCUGUACAUCUC", "self-cleavage": 0.27}, {"variant": "UGACGGGGGGCCACAGCAGAAGCGUUCACGUCGCAGCCCCUGUCGGAUUCUGGUGAAUCUGGGUAUUCUGCUGUAUAUCUC", "self-cleavage": 0.08}, {"variant": "UGACAGGGGGCCACGGCAGAAGCGUUCACGUCGCAGCCCCUGUCAGAUUCUGGAGAAUCUGCGAAUUCUGCUGUAUAUCUC", "self-cleavage": 0.71}, {"variant": "UGACAGGGGGCCGCAGCAGAAGCGUUCACGUCGCAGCCCCGGUCAGAUUCUGGUGAAUCUGCGAAUUCCGCUGUAUAUCUC", "self-cleavage": 0.47}, {"variant": "UGACAGGGGGCCUCAGCAGAAGCGUCCUCGUCGCAGCCCCUGUCAGAUUCUGGUGAAUCCGCGAGUUCUGCUGUAUUUCUC", "self-cleavage": 0.04}, {"variant": "UGACAGGGGGCCACAGCGGAAGCGAUCACGUCGCAGCCCCUGUCAGAUUCUGGUGAAUCUGCGAAUUCCGCUGUAUAUCUC", "self-cleavage": 0.11}, {"variant": "UGACAGGGGGCCUCAGCAGAAGCGUUCACGUCGCAGCCCCCGUCAGAUUCUGGGGAAUCUGCGAAUUCUGCUGUAUAUCUC", "self-cleavage": 0.85}, {"variant": "UGACAGGGGGCCACGGCAGAAGCGUUCACGUCGCAGCCCCUGUCAGAUUCUGGUGAAUCUGCGAAUCCUGCUGUAUAUCUC", "self-cleavage": 0.14}, {"variant": "UGACAGGGGGCCACAGCAGAGGCGUCCACGUCGCAGCCCCUGUCAGAUUCUGGUGAAUCUGCGAAUUCUGCUGUAUAUCUC", "self-cleavage": 0.47}, {"variant": "UGACAGGGGGCCACAGCAGCAGCGUUCACGUCGCAGCCCCUGUCAGAUUCUGGUGAAUCUGCGAAUCCUGCUGUAUAUCUC", "self-cleavage": 0.14}, {"variant": "UGACAGGGGGCCACAGCGGAAGCGUUCACGUCGCAGCCCCUGUCAGAUUCUGGUGAAUCUGCGAAUCCUGCUGUAUAUCUC", "self-cleavage": 0.07}]}]}
